Measurements reported in ChEMBL document CHEMBL4888484, “Replenishing the malaria drug discovery pipeline: Screening and hit evaluation of the MMV Hit Generation Library 1 (HGL1) against asexual blood stage Plasmodium falciparum ,using a nano luciferase reporter read-out” (2022).
In all, about 150,000 compounds went through this assay and about 540 (0.36%) showed an effect of 50% or more. This is one part of the list.

test system: Plasmodium falciparum; experiment: Primary screen in NF54 nanoGlo assay, in single point, at 2uM, 72h; a lower Z score goes with more inhibition; assay type: functional, Erythrocyte; conditions: timepoint 72 hour

Row | Structure (SMILES) | % Inhibition [%] | Z score
1 | O=C1NC2(CCCC2)C(=O)N1CCCCN1C(=O)c2ccccc2C1=O | -10 | 1.66
2 | Clc1ccc(-c2cc(Cn3ccnn3)on2)cc1 | 0 | 0.06
3 | Cc1ccc(S(=O)(=O)N2C3CCC2CC(=C2CC2)C3)cc1C | 1 | -0.26
4 | CC(C)OCCS(=O)(=O)NC(C)(C)c1cccs1 | -8 | 1.36
5 | CN(C)S(=O)(=O)NCc1ccccc1 | 0 | -0.04
6 | CC1CCC2(CC1)NC(=O)N(C[C@H](O)COCc1ccccc1)C2=O (stereo partly drawn) | -21 | 1.91
7 | Cc1cc(C(=O)NCC[C@H](C)n2nc(C)cc2C)c2c(-c3ccc(F)cc3)noc2n1 | 37 | -4.22
8 | Cc1ccc(S(=O)(=O)NC[C@H]2CN(CC3CC3)CC23CCCCC3)c(C)c1 | 9 | -1.38
9 | CCn1ncc(NC(=O)c2cc(C3CC3)nc3onc(-c4cccc(OC)c4)c23)c1C | -3 | 0.46
10 | Cc1n[nH]c(CNc2ncnc3c2ncn3C)c1C | -5 | 0.92
11 | Clc1ccc(-c2noc(-c3ccc4c(c3)OCCO4)n2)cc1 | -15 | 1.75
12 | O=C(c1cncc(-c2ccc(Cl)cc2)c1)N1CC[C@@](O)(C(F)(F)F)C1 | -17 | 2.35
13 | Nc1cc(-c2cncc(C(=O)N3CCOCC3)n2)c2cc[nH]c2n1 | -13 | 1.29
14 | CC(C)CCn1c2c(c(=O)[nH]c1=O)[C@H](C(=O)Nc1ccc(F)c(F)c1F)CC(=O)N2 | 9 | -1.27
15 | COc1ccc(-c2cc3cc(C)[nH]c(=O)n3c2)cc1 | -3 | 0.39
16 | CC(C)[C@H](NS(=O)(=O)Cc1ccccc1)[C@H](O)C(F)(F)F | -19 | 1.57
17 | C[C@H]1Cc2ccccc2N1CCC(=O)Nc1sccc1C#N | -10 | 1.42
18 | COc1cccc(-c2cnc(-c3ccc(CNC(=O)c4c(F)cccc4F)cc3)[nH]2)c1 | 5 | -0.78
19 | O[C@@H](CN1CC(O)(c2ccc(Cl)cc2)C1)C(F)(F)F | -1 | 0.07
20 | Cn1ccnc1C(NC(=O)Nc1nc2c(s1)CCC2(C)C)c1nccn1C | -5 | 0.46
21 | Cn1nc(N2CC[C@H](NC(=O)C3CCCCC3)C2)ccc1=O | -6 | 0.81

Row | Structure (SMILES) | % Inhibition [%] | Z score
22 | CC1CC(NC(=O)c2cn(C(C)C)cn2)C(=O)N1c1ccccc1 (stereo not drawn) | -2 | 0.33
23 | COc1cccc(CN2C[C@@H](n3cnnn3)C[C@H]2C(=O)NCc2ccc(C)cc2)c1 | 5 | -0.58
24 | COCCN(Cc1nnc(C(C)C)o1)CC(F)(F)F | -10 | 1.24
25 | CCC[C@H](Nc1nc(N)ncc1CC)C(=O)NC | -7 | 0.82
26 | CCOC(=O)N1CCC(n2c(=O)[nH]c3ccc(F)cc3c2=O)CC1 | -10 | 1.31
27 | CC1CC(C(=O)NCC2CCCCC2)c2ccccc2N1 (stereo not drawn) | 3 | -0.43
28 | O=C(N[C@H]1CCCc2ccccc21)c1cc(COc2ccc3ncccc3c2)on1 | -7 | 0.9
29 | CCCn1nccc1C(=O)NCc1nnc(CC)o1 | -3 | 0.49
30 | c1ccc(-c2noc(NC[C@H]3CCN(c4ccccc4)C3)n2)cc1 | -9 | 1.1
31 | O=C(CC[C@@H]1CCCN2CCCC[C@H]12)NC1(CO)CCCCC1 | -10 | 1.66
32 | CCc1nccn1CCC(=O)N1CC[C@@]2(O)CCCC[C@H]2C1 | -9 | 1.39
33 | CC1CN(C(=O)C2CN(S(C)(=O)=O)C2)CC(C)O1 (stereo not drawn) | -9 | 1.39
34 | Cc1nnc(-c2ccccc2C(=O)Nc2cccc(F)c2)o1 | 8 | -1.26
35 | COc1cc(CN2CCCN(c3ccc(NC(=O)COc4ccc(Cl)cc4)cn3)CC2)cc(OC)c1 | -18 | 2.3
36 | C=CCN(CCC)C(=O)c1sc(C)nc1C | -13 | 1.88
37 | COC(=O)CC1(NC(=O)c2ccnc(N(C)C)c2)CCC1 | 27 | -3.03
38 | O=C(N[C@@H]1CC[C@H]2CCOc3ccccc3C(=O)N3CCN(C4CCC(F)(F)CC4)C[C@H]3C(=O)NC[C@H]1O2)C1CCOCC1 | 29 | -3.41
39 | CC[C@@H](C(=O)NCCCNc1cccnc1)n1cccn1 | -5 | 1.06
40 | Cn1ncc(Cl)c1C(=O)N[C@H](c1cccs1)C1(CO)CCC1 | -5 | 0.67
41 | Cc1occc1C(=O)N1CCc2[nH]nc(C(=O)NCc3ccc(F)cc3)c2C1 | -5 | 0.95
42 | COc1ccccc1Cc1nnc2n1CCCC2 | 35 | -4.73

Row | Structure (SMILES) | % Inhibition [%] | Z score
43 | Cc1cc(C)n(CC(=O)N(C)[C@H]2CCc3nnc(C)n3CC2)n1 | -11 | 1.65
44 | O=C(c1ccccc1)N1CC(COc2ccccc2)OC(c2ccccc2O)O1 (stereo not drawn) | -24 | 2.59
45 | CCC(=O)NC[C@@]12CCCC=C1N(C)C(=O)CC2 | 11 | -1.56
46 | Cc1nnc2n1[C@@H](C)CN(C(=O)CCn1cnc3ccccc3c1=O)C2 | -8 | 1.39
47 | C[C@H]1CCCCN1C(=O)Cn1cc(C(=O)c2ccco2)c2ccccc21 | -14 | 1.88
48 | C=C(C)C[C@H](C)C(=O)Nc1cnc2nccn2c1 | -8 | 1.34
49 | Cc1cnc(CCNC(=O)C2CC23CCOc2ccccc23)s1 (stereo not drawn) | -3 | 0.38
50 | Cn1ncc2c1NC(=O)C[C@@H]2c1ccccc1 | 34 | -3.88
51 | N#Cc1ncn(-c2nc(-c3cccc(Cl)c3)nc3c2CCCC3)n1 | -6 | 0.81
52 | CCc1ccc2nc(C)cc(C(=O)N3CCN(c4ccccc4)C(=O)C3)c2c1 | -8 | 1.49
53 | CCCC[C@H]1CN(c2cccc(C)c2)C(=O)CN1C(=O)c1cc(C2CC2)n[nH]1 | -13 | 2.32
54 | Cc1ccc2nc(N3CCC[C@H](C(=O)NCc4cccnc4)C3)[nH]c2c1 | -2 | 0.28
55 | Cc1c(C(=O)Nc2ccc(Cl)cc2F)sc2ncnc(N3CCCC3)c12 | -12 | 1.13
56 | C[C@H]1CS(=O)(=O)N(c2ccc(C(=O)N(C)c3ccccc3)c(Cl)c2)C1=O | -4 | 0.52
57 | O=C(c1cccc(N2CCCC2=O)c1)N1C[C@@H](CN2CCOCC2)[C@@H](CO)C1 | 1 | -0.12
58 | CCOC(=O)c1ccc(NC(=O)c2nc(-c3cnccn3)no2)cc1 | -7 | 0.95
59 | CO[C@H]1CCCN(c2ccnc(C(C)C)n2)C1 | -4 | 0.8
60 | O=C(Nc1ccc(S(=O)(=O)N2CCCC2)cc1)c1sc2cccc(F)c2c1Cl | -1 | 0.16
61 | CCc1nc(-c2ccc(C#N)cc2)cc(-c2c(C)noc2C)n1 | -11 | 1.46
62 | Cc1ccc(-c2c(C)sc(NC(=O)c3ccncc3)c2C(N)=O)cc1C | -15 | 1.36
63 | CCOC(=O)[C@H]1CCCN(C(=O)c2c(Cc3ccccc3C)n(Cc3ccccn3)c(C)cc2=O)C1 | -8 | 1.53

Row | Structure (SMILES) | % Inhibition [%] | Z score
64 | CN1CC2(CCN(c3cnc4ccccc4n3)CC2)OCC1=O | -5 | 0.88
65 | COc1cccc(CCc2ccccc2C(=O)N2CC[C@@H]3CNC[C@@H]32)c1 | 4 | -0.81
66 | CCC1Oc2ccc(NC(=O)C(CC)c3ccccc3)cc2CN(Cc2ccc3c(c2)OCO3)C1=O (stereo not drawn) | -5 | 1
67 | CCS(=O)(=O)N1CCC[C@H](C(=O)Nc2cc(C)on2)C1 | 13 | -1.84
68 | O=C(c1cc(Cl)sc1Cl)N1CCn2nccc2C1 | -8 | 1.49
69 | c1cc2c(cc1CCN1CCOC3(CCCC3)C1)OCCO2 | 3 | -0.41
70 | Nc1cccc(-n2ccc(-c3cnccn3)n2)n1 | -5 | 0.58
71 | CC(=O)Nc1cccc(-c2ncc(C)c(N)n2)c1 | 1 | -0.12
72 | COCCC(=O)Nc1ccccc1N(C)C1CCCC1 | -2 | 0.46
73 | COc1cccc(-c2ccc3c(c2)O[C@H]2CN(C(=O)CC(C)(C)C)C[C@H]2N(C)C3=O)c1 | 4 | -0.58
74 | Cc1ccc(C(=O)N2CCCC3CCCC32)c(=O)[nH]1 (stereo not drawn) | -10 | 1.06
75 | Oc1ccc(NC2Cc3ccccc3C2)cc1 | 2 | -0.36
76 | O=C(C1CCOCC1)N1CC[C@]23C(=O)N(Cc4cn(nn4)CCCOc4cccc(c4)[C@H]12)c1ccccc13 | 4 | -0.57
77 | CCC(=O)NCc1nc2c(n1C)CN(S(=O)(=O)c1c(C)noc1C)CC2 | -13 | 1.52
78 | CO[C@H]1C[C@@H](N(C)C(=O)NCC2CCC(C#N)CC2)C1 (stereo partly drawn) | 0 | -0.06
79 | COC(=O)N1CCC[C@H]1C(=O)OCC(=O)N1CCCC1 | -12 | 1.47
80 | CCc1c[nH]c2ncnc(N3CCC(N(C)C)C3C)c12 (stereo not drawn) | -7 | 1.46
81 | C[C@H](NC(=O)Nc1cc(NS(C)(=O)=O)ccc1F)C1=CCCCC1 | 10 | -1.3
82 | Cc1cccc(N2CCN(S(=O)(=O)c3cc4n(c3)CCCNC4=O)CC2)c1 | -16 | 1.9
83 | CCn1nc(C)nc1-c1ccc(F)c2cccnc12 | -3 | 0.55
84 | CCc1c(C2CCN(C(=O)Nc3ccccc3C)CC2)noc1N | -16 | 2.58
